± gives the standard deviation of the averaged measurements. The list shows a part of the results.

This experiment concerns PfAP2-LT AP2 domain (GST-tagged). Kind of experiment: gcPBM binding intensity (ln(normalized median fluorescence intensity)); higher = stronger DNA binding. The method in brief: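 Using an Agilent 4 × 180k array, primer-extended double-stranded 36-bp intergenic genomic probes and negative controls were exposed for 1 h to GST-fused P. falciparum DNA-binding domains expressed in E. coli. Binding was carried out in 1× PBS with 1% milk, 0.2 mg/ml BSA, 0.5% salmon testes DNA and 0.03% Triton X-100, and protein was detected with Alexa488 anti-GST antibody and a 488 nm scan. Binding intensity is the highest Masliner-normalised natural-log median intensity across replicate spots of either probe orientation.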
In the case of “TACATATTTATATACACACACACACGGATATTTATA [CACACA_site7239]”, the “gcPBM binding intensity (ln)” value was determined as 9.87 ± 0.45.

Take “ATAAAAAAAAAAAAAAAATATATATATATATATATA [XGTACX_negctrl_site424]”: the “gcPBM binding intensity (ln)” value worked out at 9.575 ± 0.0071.

As for “TATATACTTTTTAATCACACTTCTTTAAAAAAAGTA [CACACA_negctrl_site1380]”, the “gcPBM binding intensity (ln)” value amounted to 8.2 ± 0.28.

In the case of “TGTAATAACGTTATAAAAAGTATAAAAAAAAAAAAA [CACACA_negctrl_site943]”, the “gcPBM binding intensity (ln)” value was determined as 8.71 ± 0.46.

For the sequence “TTATTTTTATTATTTTGTATATATATTTATAGAAAA [XGTACX_negctrl_site465]”, the “gcPBM binding intensity (ln)” value was determined as 8.23 ± 0.33.

Turning to “TTTTAGGTCTGAATGTGTACTAAATAATATAAGTAT [XGTACX_site6554]”, the “gcPBM binding intensity (ln)” value worked out at 8.55 ± 0.38.

“TACCTAATATGTTATACACACATTAGAAGTACATAT [CACACA_site5375]”: the “gcPBM binding intensity (ln)” value amounted to 9.05 ± 0.33.

In the case of “CAAAATTTTTATAAGTCACACATTATCTAAGCTTAT [CACACA_site5747]”, the “gcPBM binding intensity (ln)” value is 8.63 ± 0.51.

Take “CACACAAAGGAATATACACACATATTTATATTTATA [CACACA_site7841]”: the “gcPBM binding intensity (ln)” value amounted to 9.21 ± 0.44.

For the sequence “AATAAATAAATAAATTAATAAATTAATAAATTAATA [GTGCAC_negctrl_site37]”, the “gcPBM binding intensity (ln)” value amounted to 8.39 ± 0.58.

Turning to “GTATATAATTTTTTATGTACTAAATTATATGTTTTT [XGTACX_site4907]”, the “gcPBM binding intensity (ln)” value worked out at 8.7 ± 0.49.

As for “ATCTATTTGTAAAGGGTGCGCATATCAATAAAAAAT [GTGCAC_site9503]”, the “gcPBM binding intensity (ln)” value amounted to 8.95 ± 0.39.

For “TATACCTTTGCGTGTGCATGCGCTTATATATATTTT [TGCATGCA_site152]”, the “gcPBM binding intensity (ln)” value amounted to 9.37 ± 0.29.

As to “TTTATGTGTATGTTTACACACATAAAAAAATATATG [CACACA_site3039]”, the “gcPBM binding intensity (ln)” value came out at 9.08 ± 0.35.

For “ACAATTCCCGTATGATGTACTTTTTTCCACTTTTTC [XGTACX_site1811]”, the “gcPBM binding intensity (ln)” value was 9.06 ± 0.47.

Take “TATTTTTAATATTTTGCATGCAGTATTTTATAAAAT [TGCATGCA_site250]”: the “gcPBM binding intensity (ln)” value was 8.8 ± 0.34.

“TACTAACATAAAGACACACACCACATAAAATAAATA [CACACA_site7663]”: the “gcPBM binding intensity (ln)” value worked out at 9.6 ± 0.33.

As to “TATGAACACAGACACACACACAAAAAAAAAAAAAAA [CACACA_site7037]”, the “gcPBM binding intensity (ln)” value is 9.18 ± 0.56.

“GGAAGAAAACTTAGGTGTACATATAAAACGATATAA [XGTACX_site3118]”: the “gcPBM binding intensity (ln)” value stood at 8.89 ± 0.52.

Take “ATAGTATACAGACACACACACACACCGATATATATA [CACACA_site8511]”: the “gcPBM binding intensity (ln)” value turned out to be 10.1 ± 0.13.

CTTATTTTGTTATAAGTGCATTTTTTAAAATTTCTT: the “gcPBM binding intensity (ln)” value was 8.54 ± 0.37.

Take “ATTATCTTATGTTATTTATTTGTCCCACATTTGTTA [TGCATGCA_negctrl_site402]”: the “gcPBM binding intensity (ln)” value came out at 8.91 ± 0.46.

Take “CATACACCCAGACACACACACATATATATATATATA [CACACA_site634]”: the “gcPBM binding intensity (ln)” value turned out to be 10.3 ± 0.17.

As to TTTTTGTTATTATGTGTGCACATATATATATATATA, the “gcPBM binding intensity (ln)” value was 9.94 ± 0.34.

On to “AACAAATATCCCAAAAGTACACATATAAAAAAAAAA [XGTACX_site4126]”, for which the “gcPBM binding intensity (ln)” value is 8.78 ± 0.42.

Values taken from the supplement of paper PMC11417369.
